# Among all 310,000 compounds or so, about 2,200 (0.71%) showed an effect of 50% or more. Effects have a minus sign here. This is one part of the list.
# Target: human ether-à-go-go-related gene (hERG) potassium channel (human, UniProt Q12809)
# Assay: primary screen, population patch clamp on CHO cells stably expressing hERG
# Sequence of human ether-à-go-go-related gene (hERG) potassium channel (Q12809 whole entry, looked up): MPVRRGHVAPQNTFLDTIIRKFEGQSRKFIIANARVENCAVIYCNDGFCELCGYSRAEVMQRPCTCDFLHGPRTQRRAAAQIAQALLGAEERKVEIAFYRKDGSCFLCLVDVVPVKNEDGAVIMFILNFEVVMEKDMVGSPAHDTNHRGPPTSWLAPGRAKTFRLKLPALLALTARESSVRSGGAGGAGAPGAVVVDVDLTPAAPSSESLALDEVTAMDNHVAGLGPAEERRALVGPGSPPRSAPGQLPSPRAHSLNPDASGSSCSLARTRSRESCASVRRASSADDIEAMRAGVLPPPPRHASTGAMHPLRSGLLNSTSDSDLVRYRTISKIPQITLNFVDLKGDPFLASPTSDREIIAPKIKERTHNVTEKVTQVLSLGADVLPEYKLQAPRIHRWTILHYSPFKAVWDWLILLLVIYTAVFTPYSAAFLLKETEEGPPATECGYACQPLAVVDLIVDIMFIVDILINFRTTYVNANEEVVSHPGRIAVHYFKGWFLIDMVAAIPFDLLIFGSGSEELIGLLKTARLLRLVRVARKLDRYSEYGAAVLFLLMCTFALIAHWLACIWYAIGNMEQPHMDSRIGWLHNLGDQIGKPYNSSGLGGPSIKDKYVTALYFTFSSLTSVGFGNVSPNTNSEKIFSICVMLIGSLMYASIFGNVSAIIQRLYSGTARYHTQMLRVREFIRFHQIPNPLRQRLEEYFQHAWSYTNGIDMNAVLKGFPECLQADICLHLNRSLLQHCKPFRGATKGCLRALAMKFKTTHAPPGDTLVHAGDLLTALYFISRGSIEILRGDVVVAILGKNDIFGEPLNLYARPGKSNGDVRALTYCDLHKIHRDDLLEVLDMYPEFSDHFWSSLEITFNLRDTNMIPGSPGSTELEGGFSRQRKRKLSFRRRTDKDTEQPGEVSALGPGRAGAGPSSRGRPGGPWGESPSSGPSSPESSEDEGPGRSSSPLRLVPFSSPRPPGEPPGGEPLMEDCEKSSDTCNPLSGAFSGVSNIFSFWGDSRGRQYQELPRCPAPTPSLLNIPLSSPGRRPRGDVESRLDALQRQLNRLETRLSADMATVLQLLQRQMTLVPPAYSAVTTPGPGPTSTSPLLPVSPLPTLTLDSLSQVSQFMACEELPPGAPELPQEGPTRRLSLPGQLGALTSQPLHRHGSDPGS
row,Compound,"hERG current change (%, negative = inhibition) at 1uM [%]"
1,N=c1c(-c2nc3ccccc3[nH]2)cc(C(=O)c2cccs2)nn1-c1ccc(Cl)cc1,16.1
2,O=C(O)CCCn1cc(NC(=O)COc2cc(F)ccc2[N+](=O)[O-])cn1,10.3
3,COc1cc(/C=C/C(=O)Nc2cc(S(=O)(=O)N3CCOCC3)ccc2N2CCCC2)cc(OC)c1OC,1.78
4,Cc1cc(NCc2cccnc2)no1,17.1
5,COC(=O)C1=C(c2cccc(OCc3ccccc3)c2)C[C@@H]2CC[C@H]1N2C(=O)NCCCOC(C)C,12.2
6,COc1ccc2cc(C#N)c(SCC(=O)Nc3nonc3C)nc2c1,6.25
7,COc1ccc(NC(=O)CS(=O)(=O)c2ccc(C)cc2)c(OC)c1,12.4
8,O=C(/C(=C/c1ccccc1Cl)c1ccccc1)N1CCOCC1,5.39
9,c1ccc(CCc2cn(C[C@H]3CC[C@@H]([C@@H]4CC[C@H](Cn5cc(CCc6ccccc6)nn5)O4)O3)nn2)cc1,-11.7
10,Cc1cc(C(=O)COC(=O)c2ccc[nH]c2=O)c(C)n1-c1ccccc1,6.39
11,CCc1cccc(NC(=O)Cn2c(=O)n(CCC(=O)NCC3CCCO3)c(=O)c3cc(OC)c(OC)cc32)c1 (centres unmarked),5.23
12,Cn1nnc2c(NCc3ccco3)nccc21,2.04
13,O=C(COC(=O)C1CC2C=CC1C2)NCc1ccco1 (centres unmarked),6.93
14,O=C(NCc1ccccn1)C(C(=O)c1cccc([N+](=O)[O-])c1)n1cc(Cl)ccc1=O (centres unmarked),18.9
15,COc1nc(-c2ccccc2)cc(-c2ccccc2)n1,-3.93
16,CC(Sc1cccc(C(F)(F)F)c1)C(=O)NC(N)=O (centres unmarked),13.9
17,CCOc1ccc(NC(=O)c2ccc3c(=O)n4c(nc3c2)CCCCC4)cc1,14.8
18,O=C(c1cc2c(s1)CCCC2)N1CCC2(CC1)OCCO2,2.7
19,COC(=O)c1sccc1-n1cccc1C(=O)C(=O)N1CCCCC1,6.44
20,COc1ccc(C(=O)Nc2ccccc2C(=O)Nc2ccncc2)cc1,12.4
21,Cc1ccc(Nc2nnc(SCC(=O)N(C)C3CCS(=O)(=O)C3)s2)cc1 (centres unmarked),9.88
22,COc1cccc(-n2c(N)c(-c3nc4ccccc4[nH]3)sc2=S)c1,15.7
23,Cc1cccc(N2CCN(C(=O)c3nn(C)c4c3CS(=O)(=O)c3ccccc3-4)CC2C)c1 (centres unmarked),8.87

# Source: publication PMC4336329 (PLoS ONE, 2015)
